The values that follow come from a collection of fitness landscapes (doi:10.1126/science.1257360).

B1: PhoQ; a variant is named by its letters at X, in order, P23837 (parent)
chain: MKKLLRLFFPLSLRVRFLLATAAVVLVLSLAYGMVALIGYSVSFDKTTFRLLRGESNLFYTLAKWENNKLHVELPENIDKQSPTMTLIYDENGQLLWAQRDVPWLMKMIQPDWLKSNGFHEIEADVNDTSLLLSGDHSIQQQLQEVREDDDDAEMTHSVAVNVYPATSRMPKLTIVVVDTIPVELKSSYMVWSWFIYVLSANLLLVIPLLWVAAWWSLRPIEALAKEVRELEEHNRELLNPATTRELTSLVRNLNRLLKSERERYDKYRTTLTDLTHSLKTPLXXLQXXLRSLRSEKMSVSDAEPVMLEQISRISQQIGYYLHRASMRGGTLLSRELHPVAPLLDNLTSALNKVYQRKGVNISLDISPEISFVGEQNDFVEVMGNVLDNACKYCLEFVEISARQTDEHLYIVVEDDGPGIPLSKREVIFDRGQRVDTLRPGQGVGLAVAREITEQYEGKIVAGESMLGGARMEVIFGRQHSAPKDE

This is one part of the list.

The variants in this assay derive from B1. Nature of the assay: enrichment ratio after two sorts for PhoP signalling (ratio (wild type AVST 3.29)); higher = more functional. The settings on record: with PhoP (E. coli).
As for NNYQ, the enrichment ratio was at most 0.25.

For the variant LDHK, the enrichment ratio was at most 0.25.

As to LATM, the enrichment ratio was at most 0.25.

With PESY, the enrichment ratio is at most 0.25.

On to SRAS, for which the enrichment ratio was at most 0.25.

On to NDTL, for which the enrichment ratio is at most 0.25.

On to HWGI, for which the enrichment ratio was at most 0.25.

As for RRDR, the enrichment ratio was at most 0.25.

Consider YAGD, for which the enrichment ratio is at most 0.25.

TKLP: the enrichment ratio amounted to 0.369.

Take SSYG: the enrichment ratio was at most 0.25.

As to DTDG, the enrichment ratio was at most 0.25.

Regarding NPQC, the enrichment ratio is at most 0.25.

With HQPN, the enrichment ratio was at most 0.25.

For QQIR, the enrichment ratio is at most 0.25.

For MVIQ, the enrichment ratio was at most 0.25.

In the case of PEKL, the enrichment ratio was at most 0.25.

Consider EDFF, for which the enrichment ratio was at most 0.25.

Regarding TFAP, the enrichment ratio is at most 0.25.

With SVAR, the enrichment ratio was found to be 6.23.

As for LLPK, the enrichment ratio was at most 0.25.

In the case of PFYN, the enrichment ratio is at most 0.25.

TQWR: the enrichment ratio was at most 0.25.

In the case of VGMC, the enrichment ratio came out at 1.02.

In the case of TPFY, the enrichment ratio is at most 0.25.

As for TNGY, the enrichment ratio was determined as 4.96.

FQSW: the enrichment ratio is 0.59.

In the case of FFEM, the enrichment ratio was at most 0.25.

On to VVWM, for which the enrichment ratio is at most 0.25.

With EPQR, the enrichment ratio was at most 0.25.

Consider QANR, for which the enrichment ratio was at most 0.25.

As to KAFG, the enrichment ratio was at most 0.25.

As to PPGL, the enrichment ratio is at most 0.25.

As to THIL, the enrichment ratio was at most 0.25.

Consider SPTF, for which the enrichment ratio was at most 0.25.

Take MRYI: the enrichment ratio was at most 0.25.

AYPR: the enrichment ratio is at most 0.25.

Turning to PATA, the enrichment ratio is at most 0.25.

Turning to NLQM, the enrichment ratio was at most 0.25.

In the case of YVHG, the enrichment ratio is at most 0.25.

As for SNTL, the enrichment ratio came out at 14.6.

Turning to WHLK, the enrichment ratio was at most 0.25.

With DQDT, the enrichment ratio is at most 0.25.

With MQPH, the enrichment ratio was at most 0.25.

For the variant PGWQ, the enrichment ratio was at most 0.25.

As to WPPV, the enrichment ratio is at most 0.25.

With LRYR, the enrichment ratio was at most 0.25.

For the variant ETDR, the enrichment ratio was at most 0.25.

Consider WTRY, for which the enrichment ratio was at most 0.25.

Turning to IHYN, the enrichment ratio was at most 0.25.

As for YDDR, the enrichment ratio was at most 0.25.

For LIEP, the enrichment ratio was at most 0.25.

As for WWTL, the enrichment ratio was at most 0.25.

On to HRPK, for which the enrichment ratio was at most 0.25.

Turning to IVNR, the enrichment ratio was at most 0.25.

As to KSKD, the enrichment ratio was at most 0.25.

Consider NRCK, for which the enrichment ratio is at most 0.25.

Take HSPP: the enrichment ratio was at most 0.25.

As to KNGL, the enrichment ratio was at most 0.25.

As for FCCW, the enrichment ratio was at most 0.25.

Regarding RPTR, the enrichment ratio was at most 0.25.

On to YEKY, for which the enrichment ratio was at most 0.25.

Turning to TSDE, the enrichment ratio is at most 0.25.

As to EGMY, the enrichment ratio is at most 0.25.

Consider NSGE, for which the enrichment ratio was at most 0.25.

As to RVKH, the enrichment ratio was at most 0.25.

With TEEQ, the enrichment ratio is at most 0.25.

As for WCIF, the enrichment ratio is at most 0.25.

As for EFQS, the enrichment ratio was at most 0.25.

On to SMTW, for which the enrichment ratio is at most 0.25.

For the variant QFWF, the enrichment ratio is at most 0.25.

For the variant DVNG, the enrichment ratio was at most 0.25.

Regarding WWKN, the enrichment ratio is at most 0.25.

As for SDSV, the enrichment ratio was determined as 5.55.

On to MLPQ, for which the enrichment ratio was at most 0.25.

As to GSML, the enrichment ratio was 9.91.

For the variant FFHS, the enrichment ratio is at most 0.25.

Turning to VGEP, the enrichment ratio is at most 0.25.

Turning to HMMA, the enrichment ratio was at most 0.25.

Take FQEL: the enrichment ratio is at most 0.25.

In the case of HIYW, the enrichment ratio is at most 0.25.

Turning to QKCK, the enrichment ratio is at most 0.25.

With SYEC, the enrichment ratio is at most 0.25.

As for GTIR, the enrichment ratio is at most 0.25.

Consider GWYV, for which the enrichment ratio is at most 0.25.

As for FSMC, the enrichment ratio amounted to 16.1.

For the variant MDHF, the enrichment ratio was at most 0.25.

Take WIEP: the enrichment ratio is at most 0.25.

In the case of VTVG, the enrichment ratio was at most 0.25.

As for PWWM, the enrichment ratio is at most 0.25.

As for PHNY, the enrichment ratio was at most 0.25.

Take SECK: the enrichment ratio is at most 0.25.

MCTE: the enrichment ratio was at most 0.25.

In the case of RRSG, the enrichment ratio is at most 0.25.

Regarding MRNQ, the enrichment ratio was at most 0.25.

As for RIHK, the enrichment ratio is at most 0.25.

Regarding TFVG, the enrichment ratio was at most 0.25.

On to SIDD, for which the enrichment ratio is at most 0.25.

As to RLWF, the enrichment ratio is at most 0.25.

Take WKAA: the enrichment ratio is at most 0.25.

In the case of MPSV, the enrichment ratio was at most 0.25.

For QDTS, the enrichment ratio is at most 0.25.

Turning to PGMM, the enrichment ratio was at most 0.25.

In the case of QVIL, the enrichment ratio is at most 0.25.

Take VGPH: the enrichment ratio was at most 0.25.

Turning to RAKY, the enrichment ratio is at most 0.25.

On to NRDI, for which the enrichment ratio was at most 0.25.

As to MNMI, the enrichment ratio was 4.

Regarding DKDD, the enrichment ratio is at most 0.25.

For VNTM, the enrichment ratio worked out at 3.43.

On to AKIS, for which the enrichment ratio is 2.92.

In the case of EEVC, the enrichment ratio was at most 0.25.

As for MAQW, the enrichment ratio is at most 0.25.

Regarding RVKK, the enrichment ratio is at most 0.25.

For the variant GFFC, the enrichment ratio is at most 0.25.

In the case of QQRA, the enrichment ratio was at most 0.25.

Consider SKVS, for which the enrichment ratio came to 5.06.

In the case of SPGA, the enrichment ratio was at most 0.25.

As to CNLF, the enrichment ratio was at most 0.25.

Regarding EFVA, the enrichment ratio is at most 0.25.

RPDP: the enrichment ratio is at most 0.25.

Turning to HEKY, the enrichment ratio is at most 0.25.

With FPRD, the enrichment ratio is at most 0.25.

As for SQIK, the enrichment ratio is at most 0.25.

KAWI: the enrichment ratio is at most 0.25.

Regarding MNSM, the enrichment ratio was 9.22.

As for KGKF, the enrichment ratio is at most 0.25.

For MDQA, the enrichment ratio is at most 0.25.

For the variant SLKK, the enrichment ratio was at most 0.25.

On to HMLY, for which the enrichment ratio is at most 0.25.

Consider STDK, for which the enrichment ratio is at most 0.25.

On to VLSM, for which the enrichment ratio came out at 0.436.

In the case of GHHA, the enrichment ratio was at most 0.25.

Regarding NTVM, the enrichment ratio was at most 0.25.

PGGN: the enrichment ratio was at most 0.25.

KAPA: the enrichment ratio was at most 0.25.

As for QTPH, the enrichment ratio was at most 0.25.

Take SQGM: the enrichment ratio is 11.1.

For GICH, the enrichment ratio amounted to 5.94.

In the case of MLDG, the enrichment ratio was at most 0.25.

Regarding LETV, the enrichment ratio was at most 0.25.

As for GQWP, the enrichment ratio was at most 0.25.

With WYHF, the enrichment ratio was at most 0.25.

Turning to ERRG, the enrichment ratio was at most 0.25.

Turning to HNTQ, the enrichment ratio was at most 0.25.

For PVYK, the enrichment ratio is at most 0.25.

IEPA: the enrichment ratio was at most 0.25.

On to DIKT, for which the enrichment ratio is at most 0.25.

With NMPQ, the enrichment ratio is at most 0.25.

Take WTRM: the enrichment ratio is at most 0.25.

On to IFIP, for which the enrichment ratio was at most 0.25.

Take PKKN: the enrichment ratio is at most 0.25.

Consider EHCV, for which the enrichment ratio is at most 0.25.
